Measured values taken from the supplement of paper PMC4604168 (melanoma cell lines).
Some of the results follow. Single values are uncertain, as repeats are few or missing.

What was measured:
Assay in all cases: cell count relative to DMSO control; melanoma cells; higher = more viable cells
Details in all cases: library dose: standard library concentration; 72 h
G361 = tested on: G361
IPC-298 = tested on: IPC-298
IST-MEL1 = tested on: IST-MEL1
LB2518-MEL = tested on: LB2518-MEL
LOXIMVI = tested on: LOXIMVI
MEL-HO = tested on: MEL-HO
MZ2-MEL = tested on: MZ2-MEL
MeWo = tested on: MeWo
RPMI7951 = tested on: RPMI7951
RVH-421 = tested on: RVH-421
SkMel28 = tested on: SkMel28
SkMel2 = tested on: SkMel2
SkMel30 = tested on: SkMel30
SkMel5 = tested on: SkMel5
UACC257 = tested on: UACC257
UACC62 = tested on: UACC62
WM115 = tested on: WM115
WM1716 = tested on: WM1716
WM1745 = tested on: WM1745
WM3526 = tested on: WM3526
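Also: cells treated in 1,536-well plates, then fixed and DAPI-stained, with nuclei counted from automated high-throughput microscope images.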

Row | SMILES | cell count (G361) [%] | cell count (IPC-298) [%] | cell count (IST-MEL1) [%] | cell count (LB2518-MEL) [%] | cell count (LOXIMVI) [%] | cell count (MEL-HO) [%] | cell count (MZ2-MEL) [%] | cell count (MeWo) [%] | cell count (RPMI7951) [%] | cell count (RVH-421) [%] | cell count (SkMel28) [%] | cell count (SkMel2) [%] | cell count (SkMel30) [%] | cell count (SkMel5) [%] | cell count (UACC257) [%] | cell count (UACC62) [%] | cell count (WM115) [%] | cell count (WM1716) [%] | cell count (WM1745) [%] | cell count (WM3526) [%]
1 | NCC(=O)Nc1ccc(-n2nc(C(F)(F)F)cc2-c2ccc3c(ccc4ccccc43)c2)cc1 + C/C(O)=C(\C#N)C(=O)Nc1cc(Br)ccc1Br [LFM-A13] (first compound 5 µM, partner dose 10 µM) | 78.4 | 48.7 | 86.3 | 86.6 | 74 | 70.9 | 71.1 | 95.2 | 103 | 90.3 | 20.2 | 36.7 | 45.2 | 61.4 | 79.4 | 67.8 | 77.5 | 96 | 98.7 | 41.9
2 | Cn1cncc1[C@@](N)(c1ccc(Cl)cc1)c1ccc2c(c1)c(-c1cccc(Cl)c1)cc(=O)n2C [tipifarnib] + C/C(O)=C(\C#N)C(=O)Nc1cc(Br)ccc1Br [LFM-A13] (first compound 0.05 µM, partner dose 10 µM) | 81.9 | 83.2 | 80.3 | 74.2 | 73.1 | 80.1 | 75.5 | 102 | 61.3 | 85.1 | 62.4 | 83.4 | 84 | 68.1 | 96.1 | 69.9 | 69.8 | 72.7 | 101 | 75.8
3 | O=C(O)[C@@H]1[O][Sb](=[O])([O][Sb]2(=[O])[O][C@H]([C@H](O)CO)[C@H](O)[C@H](C(=O)O)[O]2)[O][C@H]([C@H](O)CO)[C@@H]1O (stereo not given in full) [stibogluconate] + C[As](C)SC[C@H](NC(=O)CC[C@H](N)C(=O)O)C(=O)NCC(=O)O [Darinaparsin] (first compound 10 µM, partner dose 2 µM) | 105 | 89.2 | 101 | 96.9 | 79.9 | 102 | 103 | 74.7 | 119 | 106 | 129 | 109 | 69.8 | 76.2 | 101 | 101 | 82.6 | 73.8 | 145 | 72
4 | OCc1c[nH]c2ccccc12 [Indole-3-carbinol] + C[As](C)SC[C@H](NC(=O)CC[C@H](N)C(=O)O)C(=O)NCC(=O)O [Darinaparsin] (first compound 4 µM, partner dose 2 µM) | 100 | 98.7 | 101 | 95.8 | 84.9 | 79.5 | 104 | 74.2 | 84.7 | 78.3 | 130 | 90.1 | 68.3 | 52.7 | 75.8 | 77.2 | 81 | 71.4 | 73.8 | 72.6
5 | N#CC[C@H](C1CCCC1)n1cc(-c2ncnc3[nH]ccc23)cn1 [ruxolitinib] + C[C@]12O[C@H](C[C@]1(O)CO)n1c3ccccc3c3c4c(c5c6ccccc6n2c5c31)CNC4=O [Lestaurtinib] (first compound 5 µM, partner dose 0.02 µM) | 60.7 | 62.2 | 76 | 63.4 | 130 | 78.9 | 91.3 | 67.9 | 85.3 | 70.2 | 56.6 | 85 | 67.6 | 59.1 | 79.7 | 75.6 | 71.6 | 65.6 | 78.5 | 63.7
6 | CCCCCCCCCCCCCCCCCCOP(=O)([O-])OC1CC[N+](C)(C)CC1 [Perifosine] + N.N.[Cl][Pt][Cl] [cisplatin] (first compound 2 µM, partner dose 8 µM) | 73.3 | 98.2 | 90.5 | 78.8 | 67 | 93.3 | 86.5 | 97.4 | 15 | 83.8 | 80.3 | 92.4 | 86.8 | 91.9 | 81.7 | 101 | 102 | 97.7 | 101 | 81.3
7 | O=S(=O)(c1ccccc1)N(CC(F)(F)F)c1ccc(C(O)(C(F)(F)F)C(F)(F)F)cc1 + C/C(O)=C(\C#N)C(=O)Nc1cc(Br)ccc1Br [LFM-A13] (first compound 7 µM, partner dose 10 µM) | 73.5 | 89.6 | 93.1 | 113 | 104 | 85.2 | 106 | 85.6 | 84.1 | 72 | 71.3 | 95.2 | 80.7 | 77 | 90.8 | 78 | 88.3 | 112 | 102 | 77.8
8 | COc1ccc(-c2ccc3c(N4CCOCC4)nc(N4C[C@@H](C)O[C@@H](C)C4)nc3n2)cc1CO + Cc1cc(SCc2sc(-c3ccc(C(F)(F)F)c(F)c3)nc2C)ccc1OCC(=O)O [GW0742] (first compound 0.1 µM, partner dose 10 µM) | 94.3 | 81.2 | 89.3 | 80.9 | 121 | 81.1 | 90.9 | 82.7 | 101 | 88.8 | 78.9 | 86.3 | 82.3 | 85.2 | 109 | 109 | 78.7 | 98.2 | 87.2 | 82.9
9 | Cn1nnc2c(C(N)=O)ncn2c1=O [temozolomide] + Cc1cc(SCc2sc(-c3ccc(C(F)(F)F)c(F)c3)nc2C)ccc1OCC(=O)O [GW0742] (first compound 10 µM, partner dose 10 µM) | 89 | 85 | 84.3 | 79.2 | 87.6 | 91.5 | 88 | 98 | 85 | 85.9 | 36.1 | 101 | 75.3 | 100 | 90.5 | 70.8 | 79.1 | 55.8 | 86.8 | 102
